Measurements as given in the supplement of paper PMC8728848.
Some of the results follow.

Key:
Test in all cases: glycan array binding signal (z-score within array); higher = stronger binding
Details in all cases: glycan notation: IUPAC condensed, linker removed
[1] = biological target: Gal(b1-3)GlcNAc(b1-3)GalNAc
Method in brief: (§1)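 Arrays were curated from the Consortium for Functional Glycomics database, 3228 in total, and kept only where the protein sequence was available. Binding is expressed as a within-array Z-score. This score was averaged across arrays of the same protein sequence at different concentrations or buffers and across linkers, and negative values can be read as non-binding.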

[2] = biological target: Gal(b1-3)GlcNAc(b1-6)Gal(b1-4)GlcNAc
Method in brief: as §1

[3] = biological target: Gal(b1-3)GlcNAc(b1-6)GalNAc
Method in brief: as §1

[4] = biological target: Gal(b1-3)GlcNAc(b1-6)[Gal(b1-3)]GalNAc
Method in brief: as §1

Gal(b1-3)GlcNAc6S = biological target: Gal(b1-3)GlcNAc6S
Method in brief: as §1

[5] = biological target: Gal(b1-3)[Fuc(a1-4)]GlcNAc
Method in brief: as §1

[6] = biological target: Gal(b1-3)[Fuc(a1-4)]GlcNAc(b1-2)Man
Method in brief: as §1

[7] = biological target: Gal(b1-3)[Fuc(a1-4)]GlcNAc(b1-2)Man(a1-3)[Gal(b1-3)[Fuc(a1-4)]GlcNAc(b1-2)Man(a1-6)]Man(b1-4)GlcNAc(b1-4)[Fuc(a1-6)]GlcNAc
Method in brief: as §1

[8] = biological target: Gal(b1-3)[Fuc(a1-4)]GlcNAc(b1-3)Gal(b1-3)[Fuc(a1-4)]GlcNAc
Method in brief: as §1

[9] = biological target: Gal(b1-3)[Fuc(a1-4)]GlcNAc(b1-3)Gal(b1-4)GlcNAc
Method in brief: as §1

[10] = biological target: Gal(b1-3)[Fuc(a1-4)]GlcNAc(b1-3)Gal(b1-4)[Fuc(a1-3)]GlcNAc
Method in brief: as §1

[11] = biological target: Gal(b1-3)[Fuc(a1-4)]GlcNAc(b1-6)GalNAc
Method in brief: as §1

[12] = biological target: Gal(b1-3)[GlcNAc(b1-6)]GalNAc
Method in brief: as §1

[13] = biological target: Gal(b1-3)[Neu5Ac(a2-6)]GalNAc
Method in brief: as §1

[14] = biological target: Gal(b1-3)[Neu5Ac(a2-6)]GlcNAc(b1-4)Gal(b1-4)Glc
Method in brief: as §1

[15] = biological target: Gal(b1-3)[Neu5Ac(a2-6)]GlcNAc(b1-6)Gal(b1-4)Glc
Method in brief: as §1

[16] = biological target: Gal(b1-3)[Neu5Ac(b2-6)]GalNAc
Method in brief: as §1

Gal(b1-4)Gal = biological target: Gal(b1-4)Gal
Method in brief: as §1

[17] = biological target: Gal(b1-4)GalNAc(a1-3)[Fuc(a1-2)]Gal(b1-4)GlcNAc
Method in brief: as §1

[18] = biological target: Gal(b1-4)GalNAc(b1-3)[Fuc(a1-2)]Gal(b1-4)GlcNAc
Method in brief: as §1

Gal(b1-4)Glc = biological target: Gal(b1-4)Glc
Method in brief: as §1

Gal(b1-4)Glc6S = biological target: Gal(b1-4)Glc6S
Method in brief: as §1

Gal(b1-4)GlcNAc = biological target: Gal(b1-4)GlcNAc
Method in brief: as §1

[19] = biological target: Gal(b1-4)GlcNAc(a1-6)Gal(b1-4)GlcNAc
Method in brief: as §1

Gal(b1-4)GlcNAc(b1-2)Man = biological target: Gal(b1-4)GlcNAc(b1-2)Man
Method in brief: as §1

[20] = biological target: Gal(b1-4)GlcNAc(b1-2)Man(a1-3)Man(b1-4)GlcNAc(b1-4)GlcNAc
Method in brief: as §1

[21] = biological target: Gal(b1-4)GlcNAc(b1-2)Man(a1-3)[Gal(b1-4)GlcNAc(b1-2)Man(a1-6)]Man(b1-4)GlcNAc(b1-4)GlcNAc
Method in brief: as §1

[22] = biological target: Gal(b1-4)GlcNAc(b1-2)Man(a1-3)[Gal(b1-4)GlcNAc(b1-2)Man(a1-6)]Man(b1-4)GlcNAc(b1-4)[Fuc(a1-6)]GlcNAc
Method in brief: as §1

[23] = biological target: Gal(b1-4)GlcNAc(b1-2)Man(a1-3)[Gal(b1-4)GlcNAc(b1-2)Man(a1-6)][Gal(b1-4)GlcNAc(b1-4)]Man(b1-4)GlcNAc(b1-4)[Fuc(a1-6)]GlcNAc
Method in brief: as §1

[24] = biological target: Gal(b1-4)GlcNAc(b1-2)Man(a1-3)[Gal(b1-4)GlcNAc(b1-2)Man(a1-6)][GlcNAc(b1-4)]Man(b1-4)GlcNAc(b1-4)[Fuc(a1-6)]GlcNAc
Method in brief: as §1

[25] = biological target: Gal(b1-4)GlcNAc(b1-2)Man(a1-3)[GlcNAc(b1-2)Man(a1-6)]Man(b1-4)GlcNAc(b1-4)GlcNAc
Method in brief: as §1

[26] = biological target: Gal(b1-4)GlcNAc(b1-2)Man(a1-3)[GlcNAc(b1-4)][Gal(b1-4)GlcNAc(b1-2)Man(a1-6)]Man(b1-4)GlcNAc(b1-4)GlcNAc
Method in brief: as §1

[27] = biological target: Gal(b1-4)GlcNAc(b1-2)Man(a1-3)[Man(a1-6)]Man(b1-4)GlcNAc(b1-4)GlcNAc
Method in brief: as §1

[28] = biological target: Gal(b1-4)GlcNAc(b1-2)Man(a1-6)Man(b1-4)GlcNAc(b1-4)GlcNAc
Method in brief: as §1

[29] = biological target: Gal(b1-4)GlcNAc(b1-2)Man(a1-6)[GlcNAc(b1-2)Man(a1-3)]Man(b1-4)GlcNAc(b1-4)GlcNAc
Method in brief: as §1

[30] = biological target: Gal(b1-4)GlcNAc(b1-2)Man(a1-6)[Man(a1-3)]Man(b1-4)GlcNAc(b1-4)GlcNAc
Method in brief: as §1

[31] = biological target: Gal(b1-4)GlcNAc(b1-2)[Gal(b1-4)GlcNAc(b1-4)]Man(a1-3)[Gal(b1-4)GlcNAc(b1-2)Man(a1-6)]Man(b1-4)GlcNAc(b1-4)GlcNAc
Method in brief: as §1

[32] = biological target: Gal(b1-4)GlcNAc(b1-2)[Gal(b1-4)GlcNAc(b1-4)]Man(a1-3)[Gal(b1-4)GlcNAc(b1-2)[Gal(b1-4)GlcNAc(b1-6)]Man(a1-6)]Man(b1-4)GlcNAc(b1-4)GlcNAc
Method in brief: as §1

[33] = biological target: Gal(b1-4)GlcNAc(b1-2)[Gal(b1-4)GlcNAc(b1-4)]Man(a1-3)[GlcNAc(b1-4)][Gal(b1-4)GlcNAc(b1-2)Man(a1-6)]Man(b1-4)GlcNAc(b1-4)GlcNAc
Method in brief: as §1

[34] = biological target: Gal(b1-4)GlcNAc(b1-2)[Gal(b1-4)GlcNAc(b1-4)]Man(a1-3)[GlcNAc(b1-4)][Gal(b1-4)GlcNAc(b1-2)[Gal(b1-4)GlcNAc(b1-6)]Man(a1-6)]Man(b1-4)GlcNAc(b1-4)GlcNAc
Method in brief: as §1

[35] = biological target: Gal(b1-4)GlcNAc(b1-2)[Gal(b1-4)GlcNAc(b1-6)]Man(a1-6)[Gal(b1-4)GlcNAc(b1-2)Man(a1-3)]Man(b1-4)GlcNAc(b1-4)GlcNAc
Method in brief: as §1

[36] = biological target: Gal(b1-4)GlcNAc(b1-2)[Gal(b1-4)GlcNAc(b1-6)]Man(a1-6)[Gal(b1-4)GlcNAc(b1-2)Man(a1-3)]Man(b1-4)GlcNAc(b1-4)[Fuc(a1-6)]GlcNAc
Method in brief: as §1

[37] = biological target: Gal(b1-4)GlcNAc(b1-2)[Gal(b1-4)GlcNAc(b1-6)]Man(a1-6)[GlcNAc(b1-4)][Gal(b1-4)GlcNAc(b1-2)Man(a1-3)]Man(b1-4)GlcNAc(b1-4)GlcNAc
Method in brief: as §1

[38] = biological target: Gal(b1-4)GlcNAc(b1-2)[Gal(b1-4)GlcNAc(b1-6)]Man(a1-6)[GlcNAc(b1-4)][Gal(b1-4)GlcNAc(b1-2)[Gal(b1-4)GlcNAc(b1-4)]Man(a1-3)]Man(b1-4)GlcNAc(b1-4)[Fuc(a1-6)]GlcNAc
Method in brief: as §1

[39] = biological target: Gal(b1-4)GlcNAc(b1-3)Gal(b1-3)GalNAc
Method in brief: as §1

B1: NPA (Narcissus pseudonarcissus), C0HM45 (protein)
chain: DNILYSGETLSPGEFLNNGRYVFIMQEDCNLVLYDVDKPIWATNTGGLDRRCHLSMQSDGNLVVYSPRNNPIWASNTGGENGNYVCVLQKDRNVVIYGTARWATGTNIH
Question: With B1 as the binder, how does the “glycan array binding signal (z-score)” value [1] read?
Answer: -0.145

Question: And the “glycan array binding signal (z-score)” value [2]?
Answer: -0.155

Question: And the “glycan array binding signal (z-score)” value [3]?
Answer: -0.144

Question: What about the “glycan array binding signal (z-score)” value [4] of the same binder?
Answer: -0.051

Question: And the “glycan array binding signal (z-score)” value (Gal(b1-3)GlcNAc6S)?
Answer: -0.145

Question: And the “glycan array binding signal (z-score)” value [5]?
Answer: -0.15

Question: And the “glycan array binding signal (z-score)” value [6]?
Answer: -0.137

Question: What about the “glycan array binding signal (z-score)” value [7] of the same binder?
Answer: 1.08

Question: What about the “glycan array binding signal (z-score)” value [8] of the same binder?
Answer: -0.124

Question: And the “glycan array binding signal (z-score)” value [9]?
Answer: -0.197

Question: What about the “glycan array binding signal (z-score)” value [10] of the same binder?
Answer: -0.147

Question: What about the “glycan array binding signal (z-score)” value [11] of the same binder?
Answer: -0.122

Question: And the “glycan array binding signal (z-score)” value [12]?
Answer: -0.144

Question: And the “glycan array binding signal (z-score)” value [13]?
Answer: -0.15

Question: And the “glycan array binding signal (z-score)” value [14]?
Answer: -0.144

Question: What about the “glycan array binding signal (z-score)” value [15] of the same binder?
Answer: -0.206

Question: And the “glycan array binding signal (z-score)” value [16]?
Answer: -0.157

Question: What about the “glycan array binding signal (z-score)” value (Gal(b1-4)Gal) of the same binder?
Answer: -0.147

Question: What about the “glycan array binding signal (z-score)” value [17] of the same binder?
Answer: -0.156

Question: What about the “glycan array binding signal (z-score)” value [18] of the same binder?
Answer: -0.154

Question: What about the “glycan array binding signal (z-score)” value (Gal(b1-4)Glc) of the same binder?
Answer: -0.145

Question: And the “glycan array binding signal (z-score)” value (Gal(b1-4)Glc6S)?
Answer: -0.151

Question: And the “glycan array binding signal (z-score)” value (Gal(b1-4)GlcNAc)?
Answer: -0.148

Question: And the “glycan array binding signal (z-score)” value [19]?
Answer: -0.143

Question: And the “glycan array binding signal (z-score)” value (Gal(b1-4)GlcNAc(b1-2)Man)?
Answer: -0.142

Question: What about the “glycan array binding signal (z-score)” value [20] of the same binder?
Answer: 0.122

Question: What about the “glycan array binding signal (z-score)” value [21] of the same binder?
Answer: 0.602

Question: What about the “glycan array binding signal (z-score)” value [22] of the same binder?
Answer: -0.122

Question: And the “glycan array binding signal (z-score)” value [23]?
Answer: -0.143

Question: What about the “glycan array binding signal (z-score)” value [24] of the same binder?
Answer: -0.153

Question: And the “glycan array binding signal (z-score)” value [25]?
Answer: 0.095

Question: What about the “glycan array binding signal (z-score)” value [26] of the same binder?
Answer: -0.138

Question: And the “glycan array binding signal (z-score)” value [27]?
Answer: 1.71

Question: And the “glycan array binding signal (z-score)” value [28]?
Answer: -0.144

Question: What about the “glycan array binding signal (z-score)” value [29] of the same binder?
Answer: -0.028

Question: And the “glycan array binding signal (z-score)” value [30]?
Answer: 3.12

Question: What about the “glycan array binding signal (z-score)” value [31] of the same binder?
Answer: -0.119

Question: What about the “glycan array binding signal (z-score)” value [32] of the same binder?
Answer: -0.084

Question: What about the “glycan array binding signal (z-score)” value [33] of the same binder?
Answer: -0.15

Question: And the “glycan array binding signal (z-score)” value [34]?
Answer: -0.152

Question: What about the “glycan array binding signal (z-score)” value [35] of the same binder?
Answer: -0.133

Question: And the “glycan array binding signal (z-score)” value [36]?
Answer: -0.14

Question: What about the “glycan array binding signal (z-score)” value [37] of the same binder?
Answer: -0.156

Question: And the “glycan array binding signal (z-score)” value [38]?
Answer: -0.141

Question: And the “glycan array binding signal (z-score)” value [39]?
Answer: -0.148
